The values that follow come from ChEMBL document CHEMBL4888484, “Replenishing the malaria drug discovery pipeline: Screening and hit evaluation of the MMV Hit Generation Library 1 (HGL1) against asexual blood stage Plasmodium falciparum ,using a nano luciferase reporter read-out” (2022).

The whole screen tested about 150,000 compounds, of which about 540 (0.36%) showed an effect of 50% or more. Some of the results follow.

For this assay, the system named is Plasmodium falciparum. In words: Primary screen in NF54 nanoGlo assay, in single point, at 2uM, 72h; a lower Z score goes with more inhibition. Type of assay: functional, Erythrocyte. The settings on record: timepoint 72 hour.
As usually defined, the % Inhibition is the relative decrease from the control value, in per cent. With `c1ccc(CN2CCC(Nc3ncnc4c3cnn4-c3ccccc3)CC2)cc1`, the “% Inhibition” value is given as -5% and the Z score turned out to be 0.99.
In the case of `Nc1c2c(-c3ccc(F)cc3)nc(N3CCN(c4ccc(Cl)c(Cl)c4)CC3)nc2nn1-c1ccc(Cl)cc1`, the “% Inhibition” value is listed as -4% and the Z score is 0.51.
Consider `COc1ccc(NC(=O)c2ccc3nc(-c4ccccc4)cn3c2)cc1`, for which the “% Inhibition” value is recorded as 0% and the Z score is given as 0.04.
In the same order, the values of `O=C1N=Nc2c3ccccc3c(O)c3c(N4CCCCC4)ccc1c23` are -11% and 1.2.
In the same order, the values of `CCN(CC)CCN(C)C(=O)CC(=O)Nc1ccc(C)cc1C` are 2% and -0.29.
As for `COc1cc(N2CCO[C@H](C(=O)N(C)C)C2)nc(N)n1`, the “% Inhibition” value is given as -15% and the Z score turned out to be 2.24.
The like results for `COC[C@H]1CCCCN1C(=O)c1coc(COc2ccccc2)n1` were, in that order, -1% and 0.21.
In the same order, the values of `CC(F)(F)c1ccc(CNC[C@H](O)c2ccc(F)cn2)cc1` are -14% and 2.42.
In the same order, the values of `Cc1ccc(C)c(-c2cc3c(=O)n(Cc4nc(-c5ccccc5)no4)ncn3n2)c1` are -12% and 1.51.
Take `Cc1noc(CCNC(=O)N2CC=C(c3c(C)[nH]c4ccccc34)CC2)n1`: the “% Inhibition” value was found to be 3% and the Z score is listed as -0.49.
The like results for `Cc1ccccc1C1CN(C(=O)C(C)C)CC1C(=O)NCCC(C)C` (stereo unspecified) were, in that order, -6% and 1.04.
Turning to `COCc1noc([C@@H]2CN(Cc3ccc(C#N)cc3)C[C@H]2COC)n1`, the “% Inhibition” value is recorded as -11% and the Z score is listed as 1.88.
For `CCNc1ncc(CN2CCC(Oc3ccccc3)(C(=O)O)CC2)cn1`, the “% Inhibition” value is given as -8% and the Z score is 0.99.
`Cc1nc(CNC(=O)COc2c(C)cccc2C)cs1`: the “% Inhibition” value is given as -9% and the Z score is given as 1.5.
Regarding `CC(C)N1C(=O)CN(C(=O)c2ccc(OC(F)F)nc2)CC1(C)C`, the “% Inhibition” value is -11% and the Z score worked out at 2.04.
In the same order, the values of `COc1ccccc1CN(Cc1nc2ccccc2n1C)C1CC1` are 3% and -0.58.
Regarding `C[C@H]1CCc2n[nH]c(C(=O)NC3(c4ncccn4)CCOCC3)c2C1`, the “% Inhibition” value came out at 2% and the Z score was -0.37.
In the same order, the values of `O=C(c1ccc(-c2noc(C(F)(F)F)n2)cc1)N1CC[C@@](O)(C(F)(F)F)C1` are -12% and 1.64.
`CCC(=O)N1CCc2ccc(OC(CC)C(=O)NC3CC3)cc2C1c1cccc(F)c1` (stereo unspecified): the “% Inhibition” value was -16% and the Z score stood at 1.59.
In the case of `Cc1cccc(S(=O)(=O)N[C@H](C(=O)O)C(C)C)c1F`, the “% Inhibition” value is -12% and the Z score came to 1.57.
For `CCS(=O)(=O)N1CCCc2cc(C(=O)NCCc3ccccc3)ccc21`, the “% Inhibition” value is reported as -6% and the Z score was determined as 0.86.
The like results for `CCCCOC1CC(NCC(=O)N2CCCCCC2)C1(C)C` (stereo unspecified) were, in that order, -6% and 0.58.
The like results for `O=C(c1ccc2c(c1)CN(C(=O)c1ccsc1)CCO2)N1CCOCC1` were, in that order, -5% and 0.69.
